Data taken from PubChem BioAssay AID588795 (National Center for Advancing Translational Sciences (NCATS), 2011).
“And” between values parts separate entries of the source, which are not always exact repeats. Equal values may be shown once. About 1,400 (0.36%) of roughly 390,000 compounds were called active. The inconclusive results got no clear call from the source; some entries with a clear call stand among them for comparison. The call rests on the fitted dose curve; in most records, active means well fitted inhibition curve with a large enough effect; inconclusive means small, poorly fitted or top-dose-only effect; inactive means no such curve, though single readings can be large or run the other way. A potency beside an inconclusive call is a rough fit, not a confirmed value.

The compounds below were run against Flap endonuclease 1 (Homo sapiens) (UniProt P39748) (assay: qHTS Assay for the Inhibitors of Human Flap endonuclease 1 (FEN1).). Conditions: Recombinant FEN1 flap cleavage, fluorescence, 15 min; series mostly up to 114 µM.
Chain of UniProt P39748 (P39748 whole entry, looked up): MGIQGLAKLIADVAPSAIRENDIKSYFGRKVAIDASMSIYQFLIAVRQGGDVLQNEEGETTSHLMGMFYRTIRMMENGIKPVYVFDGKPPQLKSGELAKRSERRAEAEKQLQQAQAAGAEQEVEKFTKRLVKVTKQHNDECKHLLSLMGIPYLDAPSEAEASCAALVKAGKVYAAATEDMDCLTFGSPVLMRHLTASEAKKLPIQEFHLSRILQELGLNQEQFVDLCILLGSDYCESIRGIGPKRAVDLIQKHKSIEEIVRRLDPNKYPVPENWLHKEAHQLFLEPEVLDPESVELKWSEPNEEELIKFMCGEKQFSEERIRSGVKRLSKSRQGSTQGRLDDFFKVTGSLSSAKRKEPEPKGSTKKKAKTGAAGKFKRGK
Method in brief: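 In this screen, 50 nM flap DNA substrate was added to 10 nM FEN1 pretreated with compound for 15 min at room temperature; cleavage was followed with reads at 0 and 15 min, and Hill fitting gave concentration–response parameters.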
Further: nearly all actives have a fitted effect of over 65% in size.
Potency means the concentration at half of the fitted maximal effect; tags describe the fitted curve by direction and shape.

Row | SMILES | Potency
1 | O=[N+]([O-])c1ccc2nc(-c3ccc(Cl)cc3)[nH]c2c1 | inconclusive: 17.8 µM [inhibitor, full curve]
2 | CC1=NN(c2ccc(C(=O)O)cc2)C(=O)/C1=C\c1ccc(OC(=O)c2cccs2)cc1 | active: 50.1 µM
3 | CCc1ccccc1NS(=O)(=O)c1ccc2[nH]cc(C(=O)NCC3CCCO3)c(=O)c2c1 (centres undefined) | inactive
4 | C=C1C=C(C)n2ncc(C(=O)Nc3cccc4cnccc34)c2N1 | inconclusive: 70.8 µM [inhibitor, partial curve, poor fit]
5 | Cc1ccc(NC(=O)c2ccc3nc[nH]c3c2)c(O)c1 | inactive
6 | Cc1cc(-c2ccco2)c(C#N)c2nc3ccccc3n12 | inconclusive: 25.1 µM [inhibitor, full curve]
7 | Cc1c(C(=O)N2CCCC2)oc2c1-c1nn(CC(=O)NCc3cccc(Br)c3)cc1CC2 | inactive
8 | CCCCn1c(N)c(-c2nc3ccccc3o2)c2c([N+](=O)[O-])nn(C)c(=O)c21 | inconclusive: 89.1 µM [inhibitor, partial curve, poor fit]
9 | CCCOC(=O)c1ccc(NC(=O)c2cc(OC)c(OC)c(OC)c2Br)cc1 | inconclusive: 56.2 µM [inhibitor, partial curve, poor fit]
10 | COc1cc(/C=C2\Oc3cc(O)ccc3C2=O)ccc1O | inconclusive: 15.8 µM [inhibitor, full curve, poor fit]
11 | CC(=O)Nc1ccc(C(=O)NCC2(N3CCCCC3)CCCCC2)cc1 | inconclusive: 89.1 µM [inhibitor, single point]
12 | COc1ccccc1C(=O)CC(=O)C(=O)Nc1cccc([N+](=O)[O-])c1C | inconclusive: 50.1 µM [inhibitor, partial curve]
13 | CCN1/C(=C/C=C/C=C/c2sc3ccccc3[n+]2CC)Sc2ccccc21 | active: 31.6 µM
14 | C/C(=C\C=C(C#N)C#N)c1cc(C#N)c(N)o1 | active: 56.2 µM
15 | CC1(C)Cc2ccccc2-c2nc3n(c(=O)c21)CCCS3 | inconclusive: 89.1 µM [inhibitor, partial curve, poor fit]
16 | COc1cc(-c2noc(C)c2C#Cc2ccsc2)cc(OC)c1OC | inconclusive: 79.4 µM [inhibitor, partial curve, poor fit]
17 | CCc1ccccc1OCC(=O)Nc1cccc(S(=O)(=O)N2CCCC2)c1 | inactive
18 | Cc1sc(NC(=O)C2CCCCC2C(=O)O)c(C(N)=O)c1-c1ccc(C(C)(C)C)cc1 (centres undefined) | inactive
19 | CN(CCCNC(=O)c1cc2c(Cl)nc3ccccc3c2s1)Cc1ccccc1 | inconclusive: 25.1 µM [inhibitor, full curve] and inconclusive: 39.8 µM [inhibitor, full curve, poor fit]
